{"source": "paper PMC5323128", "about": "(2016)", "binders": {"B1": {"name": "Recombinant human DR5 (Death Receptor 5) (receptor)", "chain": "not shown"}}, "key": {"[1]": {"target": "Divalent TRAIL^mim/DR5 peptide 2d", "assay": "SPR; apparent koff"}, "[2]": {"target": "Tetravalent TRAIL^mim/DR5 peptide 2ta", "assay": "SPR; apparent koff"}}, "data": [{"binder": "B1", "values": [{"measurement": "koff", "setting": "[1]", "result": 0.002, "unit": "s⁻¹"}, {"measurement": "koff", "setting": "[2]", "result": 0.0001, "unit": "s⁻¹"}]}]}
